# Measured values as given in PMC4336329 (PLoS ONE, 2015).
# About 2,200 (0.71%) of roughly 310,000 compounds showed an effect of 50% or more. Effects have a minus sign here. This is one part of the list.
# Biological target: human ether-à-go-go-related gene (hERG) potassium channel (human, UniProt Q12809)
# Assay: primary screen, population patch clamp on CHO cells stably expressing hERG
# human ether-à-go-go-related gene (hERG) potassium channel, sequence (Q12809 whole entry, looked up): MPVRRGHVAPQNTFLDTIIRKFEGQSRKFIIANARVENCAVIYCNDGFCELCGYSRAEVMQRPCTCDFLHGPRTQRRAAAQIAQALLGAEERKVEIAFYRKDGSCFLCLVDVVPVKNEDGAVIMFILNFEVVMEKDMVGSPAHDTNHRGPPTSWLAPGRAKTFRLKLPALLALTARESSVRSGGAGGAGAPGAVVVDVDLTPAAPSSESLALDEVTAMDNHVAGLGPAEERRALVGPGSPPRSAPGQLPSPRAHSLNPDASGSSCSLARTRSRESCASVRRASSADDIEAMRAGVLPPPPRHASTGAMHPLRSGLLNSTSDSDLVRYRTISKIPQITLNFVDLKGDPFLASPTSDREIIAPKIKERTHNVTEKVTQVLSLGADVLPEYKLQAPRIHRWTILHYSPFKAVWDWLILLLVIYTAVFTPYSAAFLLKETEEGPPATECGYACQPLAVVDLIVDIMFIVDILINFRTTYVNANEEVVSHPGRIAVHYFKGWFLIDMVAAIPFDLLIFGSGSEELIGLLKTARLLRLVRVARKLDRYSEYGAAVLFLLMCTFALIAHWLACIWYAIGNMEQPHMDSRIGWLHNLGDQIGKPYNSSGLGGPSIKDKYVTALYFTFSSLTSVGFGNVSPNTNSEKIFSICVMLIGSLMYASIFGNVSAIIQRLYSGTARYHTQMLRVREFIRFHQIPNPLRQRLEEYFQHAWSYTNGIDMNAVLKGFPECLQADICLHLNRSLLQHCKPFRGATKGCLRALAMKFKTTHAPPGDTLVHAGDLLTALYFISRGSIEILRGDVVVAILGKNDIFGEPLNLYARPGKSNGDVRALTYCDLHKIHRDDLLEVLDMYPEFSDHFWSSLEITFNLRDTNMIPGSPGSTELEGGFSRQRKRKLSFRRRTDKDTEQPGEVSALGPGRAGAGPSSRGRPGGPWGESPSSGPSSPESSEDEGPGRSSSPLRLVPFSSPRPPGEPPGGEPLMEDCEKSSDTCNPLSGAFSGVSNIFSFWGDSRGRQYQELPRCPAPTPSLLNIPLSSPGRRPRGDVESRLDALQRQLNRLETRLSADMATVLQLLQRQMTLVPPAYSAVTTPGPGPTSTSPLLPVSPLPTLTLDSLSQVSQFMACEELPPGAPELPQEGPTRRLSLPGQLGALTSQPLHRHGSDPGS
row,Compound,"hERG current change (%, negative = inhibition) at 1uM [%]"
1,CCCCNCCCOc1cccc(Cl)c1,5.13
2,COc1cccc(NC(=O)CCCOc2cc(=O)n(C)c3ccccc23)c1,12
3,CCOc1ccccc1OCC(=O)O,12.1
4,CCCOc1ccc(N2C(=O)CC(NCCNc3ccc([N+](=O)[O-])cn3)C2=O)cc1 (centres unmarked),-57.8
5,CCOCCCNS(=O)(=O)c1ccc(NC(=O)c2ccccc2)cc1,10.5
6,CCOC(=O)Cn1nc(-c2ccc(Cl)cc2)ccc1=O,1.57
7,Cc1noc(C)c1COc1ccc(C(=O)N2CCN(c3ccccn3)CC2)cc1,1.21
8,CC(=O)Nc1ccc(NC(=O)CN(C)S(=O)(=O)c2ccc3nc(C)sc3c2)cc1,3.13
9,COC(=O)C1C/C(=N\NS(=O)(=O)c2ccc(C)cc2)c2ccccc2C1 (centres unmarked),3.64
10,Cc1ccc(Sc2nnc(-c3ccccc3)cc2C#N)cc1,10.2
11,CC12CCC(c3n[nH]c(=S)nc31)C2(C)C (centres unmarked),18.7
12,O=C(Nc1ccccc1C(=O)N1CCCCC1)c1ccco1,16.7
13,Cc1ccc2[nH]c(=O)c(CN(Cc3ccc4c(c3)OCO4)Cc3nnnn3C3CCCC3)cc2c1,9.47
14,CN1CCc2c(sc3nc(SCC(=O)N4CCOCC4)nc(N)c23)C1,12.7
15,CCOC(=O)CCCSc1nc2sc3c(c2c(=O)[nH]1)CCC3,14.8
16,Cc1c(Br)c([N+](=O)[O-])nn1CC(=O)Nc1ccc2nc3n(c(=O)c2c1)CCCC3,20.9
17,CCCOc1ccc(N2C(=O)CC(SC(=N)N3N=C(c4ccccc4)CC3c3ccccc3)C2=O)cc1 (centres unmarked),6.52
18,O=C(COC(=O)c1ccccc1O)Nc1cccnc1Cl,15.8
19,O=C(O)C1C2C=CC(C2)C1C(=O)N1CCOCC1 (centres unmarked),1.69
20,Cn1c(Cn2c(=O)sc3ccccc32)nnc1SCC(=O)N1CCN(c2ccccc2)CC1,-20.7
21,O=C1N(c2ccccc2C(F)(F)F)OC1(Cc1ccccc1)c1ccccc1 (centres unmarked),11.4
22,Cc1ccccc1CN1CCN(C2CCC2)CC1CCO (centres unmarked),13.9
23,COc1cc(NC(=O)c2ccccc2)c(OC)cc1NC(=O)CN1CCN(c2ccccn2)CC1,3.33

row,Compound,"hERG current change (%, negative = inhibition) at 1uM [%]"
1,COc1cc(CNn2cn[nH]c2=S)cc(Br)c1OCc1ccccc1F,9.54
2,CN1C(=S)SC(/[N+]([O-])=C\c2ccco2)C1(C)C (centres unmarked),10.4
3,Cl.c1ccc(COc2ccc(CNCc3cccs3)cc2)cc1,11.7
4,CCCC(=O)Nc1c2c(nn1-c1ccccc1)CSC2,10.3
5,Cc1ccc(NC(=O)C(c2ccccc2)N(C)C)cc1Cl (centres unmarked),8.04
6,O=C(c1ccco1)N1CCCC(c2nc3c(nnn3Cc3c(Cl)cccc3Cl)c(=O)[nH]2)C1 (centres unmarked),1.38
7,Cc1ccc(SCCNC(=O)/C=C/c2cccc([N+](=O)[O-])c2)cc1,1.8
8,Oc1ccc(/C=N/N2CCOCC2)c(O)c1O,31.7
9,C/C(=N\NC(=O)CSc1nc2ccccc2o1)c1ccc(O)cc1,8.71
10,O=C(CC1N=C2c3ccccc3N=C(SCc3ccccc3Cl)N2C1=O)NCc1ccco1 (centres unmarked),-5.05
11,COc1cc(Br)c(CCNC(=O)c2ccco2)cc1OC,11.8
12,CCc1c(C)nc(SCC(=O)N2CCN(c3ccccc3)CC2)[nH]c1=O,12.1
13,Cn1nnc2cc(C(=O)NCc3ccc4c(c3)OCO4)ccc21,14.9
14,Cc1ccc(-c2nc(N)n(C(=O)Cc3ccccc3)n2)cc1,18.5
15,COc1cccc(C2C(C#N)=C(N)N(c3ncn[nH]3)C3=C2C(=O)CCC3)c1 (centres unmarked),12.7
16,C=CCNC(=S)N(C1CCCCC1)C1CCCCC1,7.82
17,NS(=O)(=O)c1ccc(Cl)cc1[N+](=O)[O-],16
18,CC(C)N1C(=O)S/C(=C/c2ccccc2OCc2ccc(C(=O)O)cc2)C1=O,-3.84
19,CC(=N)C1=C(O)CC(C)(C)CC1=O,13.9
20,Fc1cccc(COc2ccccc2C(=S)N2CCCC2)c1,9.03
21,COc1ccc(NC(=O)c2cc(-c3cccs3)on2)cc1OC,13.9
22,c1ccc(CSCc2ccccc2)cc1,6.33
23,CCOc1ccc(S(=O)(=O)Nc2ccc(C(=O)NN)cc2)cc1,7.88

row,Compound,"hERG current change (%, negative = inhibition) at 1uM [%]"
1,Cc1ccc2c(c1)N(CC(=O)NCCCN1CCOCC1)C(=O)c1cccnc1O2,3.79
2,CN(C)c1nc(Oc2ccc(OCCOc3ccccc3)nn2)nc(N(C)C)n1,6.49
3,COc1cccc(-n2c(SCC(=O)N3CCc4ccccc43)nnc2-c2c[nH]c3ccccc23)c1,2.71
4,C/C(=N\NC(=O)c1ccccc1O)c1ccc(NC(=O)c2ccccc2)cc1,12
5,N=C1C(c2nc3ccccc3c(=O)[nH]2)=C(O)CN1CCO,17.8
6,COc1ccc(NC(=O)N2CCCC2C(=O)NC2CCCC2)cc1 (centres unmarked),11.7
7,O=C(NNc1nc2c(F)cccc2s1)c1cc(=O)c2ccccc2o1,11.1
8,CN(CCC(=O)c1ccccc1)CCC(=O)c1ccccc1,6.51
9,CCOc1ccc(NS(=O)(=O)c2ccc(C(=O)N3CCCC(C)C3)cc2)cc1 (centres unmarked),2.66
10,COC(=O)c1oc2ccc(OC)cc2c1N,14.9
11,S=C(NCCC(c1ccccc1)c1ccccc1)Nc1ccccc1Cl,11.7
12,CN1CCN(c2ccc([N+](=O)[O-])c(N)c2)CC1,-12.3
13,O=C(NCCCN1CCOCC1)c1cccc(NC(=O)c2ccccc2)c1,11.4
14,O=C(COc1ccc(S(=O)(=O)N2CCOCC2)cc1)NCc1ccccc1,15
15,COc1ccc(-n2nnnc2SCC(=O)N2CCCc3ccccc32)cc1OC,15.1
16,NC(=O)c1cc(C(N)=O)nc(Cl)n1,15.1
17,CCN(CCn1cccn1)C(=O)CC1C(=O)NCCN1Cc1cc(OC)cc(OC)c1 (centres unmarked),6.22
18,Cc1ccc(Nc2c(-c3ccc(C)o3)nc3ncccn23)cc1,-7.38
19,COC(=O)c1cc(S(=O)(=O)N2CCCCC2)c[nH]1,16.1
20,CC(=O)c1ccc(S(=O)(=O)N2CCN(C(=O)c3ccc(-n4nc(C)c(Cl)c4C)cc3)CC2)cc1,-9.13
21,COc1ccc(C2=NCC(=S)Nc3ccc(Cl)cc32)cc1OC,-0.633
22,CC(=O)C1=C(O)C=C(c2ccco2)CC1c1ccco1 (centres unmarked),5.15
23,O=c1nc(SCc2ccccc2Cl)nc(-c2ccc(Cl)cc2)[nH]1,8.5

row,Compound,"hERG current change (%, negative = inhibition) at 1uM [%]"
1,CCNc1nc(NCC)nc(Nn2cnnc2)n1,3.61
2,Cc1ccc(N/C=C(\C#N)S(=O)(=O)c2ccccc2)cc1,12.6
3,CS(=O)(=O)c1ccccc1-c1nnc(NC(=O)C2=COCCO2)o1,5.41
4,O=C(C1CCC(CNc2c(N3CCCCC3)c(=O)c2=O)CC1)N1CCCCC1 (centres unmarked),9.59
5,COc1ccccc1NS(=O)(=O)c1cc(NC(=O)CCC(=O)c2cccs2)ccc1Cl,-0.761
6,O=C(CN1CCC(Cc2ccccc2)CC1)NCCc1ccc(F)cc1,-0.358
7,NC(=O)NS(=O)(=O)Oc1ccccc1,15.9
8,Cl.NS(=O)(=O)c1ccc(CCNCc2cccs2)cc1,4.5
9,CCCN(CCC)CCCNC(=O)Cn1cnc2sc(C)c(S(=O)(=O)N3CCOCC3)c2c1=O,14
10,COc1ccc(N2C(=NC(=O)C3CCCCC3)SC3CS(=O)(=O)CC32)c(OC)c1 (centres unmarked),-1.01
11,Cn1c(=O)oc2cc(S(=O)(=O)NCCN3CCc4ccccc4C3)ccc21,4.52
12,COc1cccc(C(=O)C2CN(c3ccccc3)CC2c2ccc(Cl)cc2)c1 (centres unmarked),10.7
13,O=C(CN1CCN(S(=O)(=O)c2ccc(F)c(Cl)c2)CC1)N1CCNC1=O,10
14,CN1CCN(S(=O)(=O)c2cccc(C(=O)Nc3ccccc3N3CCCC3)c2)CC1,-0.886
15,CCC(C)(C)NC(=O)CSc1nc(Cc2ccccc2)nc2ccccc12,11.3
16,O=C(C1CCCN(S(=O)(=O)c2ccc(F)cc2)C1)N1CCCCC1 (centres unmarked),11
17,Cc1nc(C)n(C(C)CNC(=O)c2ccco2)n1 (centres unmarked),11.9
18,Cc1ccc(/C=C(/C#N)C(=O)NC(=O)Oc2ccccc2)cc1,12.8
19,CN(C(=O)CN1C(=O)S/C(=C\c2ccccc2)C1=O)C1CCS(=O)(=O)C1 (centres unmarked),14.7
20,COc1ccc(-c2cc(C(=O)OCC(=O)Nc3cc(C)on3)c3ccccc3n2)cc1OC,5.22
21,O=C(Nc1scc(-c2ccccc2)c1C(=O)O)c1ccco1,12.6
22,O=C(NCCC1=CCCCC1)C(=O)NCc1ccccc1Cl,-7.72
23,Cc1ccccc1-n1ccnc1SCC(=O)NCC1CCCO1 (centres unmarked),13.9
